Measurements taken from ChEMBL document CHEMBL4888484, “Replenishing the malaria drug discovery pipeline: Screening and hit evaluation of the MMV Hit Generation Library 1 (HGL1) against asexual blood stage Plasmodium falciparum ,using a nano luciferase reporter read-out” (2022).
Out of some 150,000 compounds screened, about 540 (0.36%) showed an effect of 50% or more. Some of the results follow.

The molecules below were run on Plasmodium falciparum (assay: Primary screen in NF54 nanoGlo assay, in single point, at 2uM, 72h; a lower Z score goes with more inhibition). Conditions: timepoint 72 hour.
Format: functional, Erythrocyte
With `O=C(COc1ccc[nH]c1=O)Nc1ccccc1F` the “% Inhibition” value was 4% and the Z score was -0.57. With `O=C1c2ccccc2CN1C1(CC(=O)n2ccnc2)CCCCC1` the “% Inhibition” value was -15% and the Z score was 1.89. With `CO[C@H]1CN(C)C[C@@H]1NS(=O)(=O)c1cccc(F)c1` the “% Inhibition” value was -15% and the Z score was 1.96. With `Cc1nnc(COC(=O)c2csc(Cc3cccc(F)c3)n2)n1C` the “% Inhibition” value was -5% and the Z score was 0.59. In the case of `Cc1ccc(CN2CCC(CC3CC3)(NC(=O)c3ccccc3)CC2)s1`, the “% Inhibition” value is reported as -4% and the Z score is reported as 0.72. `CN(Cc1ncnn1C)C(=O)NC[C@@H]1COc2ccccc2C1` was tested, and the “% Inhibition” value was -5% and the Z score was 0.58. In the case of `O=C(O)C[C@@H]1CN(C(=O)NCc2cccc(F)c2)C[C@@H]1c1c[nH]nn1`, the “% Inhibition” value is reported as 8% and the Z score is reported as -1.41. For `O=S(=O)(Nc1ncn(Cc2c(Cl)cccc2Cl)n1)c1ccc(Cl)cc1`, the “% Inhibition” value was -3% and the Z score was 0.51. In the case of `O=C(O)c1cc(NC(=O)C2CCCCC2)cc(NC(=O)C2CCCCC2)c1`, the “% Inhibition” value is reported as 1% and the Z score is reported as -0.14. With `Cc1nc(-n2[nH]c3c(c2=O)CCCC3)[nH]c(=O)c1CCCN1C(=O)c2ccccc2C1=O` the “% Inhibition” value was -8% and the Z score was 1.25. For `CCc1noc(CS(=O)(=O)CC2(O)CCC(C)CC2)n1` (stereo not drawn), the “% Inhibition” value was -6% and the Z score was 0.75. `Cc1nc(C(C)C)sc1C(=O)N1C[C@@H](CN2CCCCCC2)[C@@H](CO)C1` was tested, and the “% Inhibition” value was 2% and the Z score was -0.35. `O=C(NCCO)Nc1cccc(C(F)F)c1Cl` was tested, and the “% Inhibition” value was -3% and the Z score was 0.24. For `CC[C@H](C)NC(=O)c1cccc(Nc2c(Oc3cccc(C)c3)cnn(-c3ccccc3Cl)c2=O)c1`, the “% Inhibition” value was -2% and the Z score was 0.32. With `O=S(=O)(c1ccc(F)cc1Cl)N1CCn2c1nc1ccccc12` the “% Inhibition” value was 0% and the Z score was 0.01. `CC(C)OC[C@@H](O)CN(Cc1ccc2c(c1)OCO2)Cc1cccs1` was tested, and the “% Inhibition” value was -17% and the Z score was 1.48. For `CC(C)c1cc(NC(=O)NCCN2C(=O)CCC2=O)no1`, the “% Inhibition” value was 5% and the Z score was -0.52. With `CN1C(=O)c2ccc(NC(=O)C3=NN(c4ccccc4)C(=O)CC3)cc2C1=O` the “% Inhibition” value was 6% and the Z score was -0.88. `CCOc1ccc(S(=O)(=O)N2CCN(c3nc4ccccc4nc3C(F)(F)F)CC2)cc1` was tested, and the “% Inhibition” value was -5% and the Z score was 0.98. With `Cc1ccc(C)c(NC(=O)Cn2c(C)cc(C)c(-c3nc(-c4ccc5c(c4)OCO5)no3)c2=O)c1` the “% Inhibition” value was -12% and the Z score was 1.71. For `CC(C)[C@@H]1N(C(=O)c2ccnc3c(C(N)=O)cnn23)CC12CCC2`, the “% Inhibition” value was -4% and the Z score was 0.45. For `Cc1cc(C(=O)Nc2cccc(C(F)(F)F)c2)cc2c1N(C)S(=O)(=O)c1ccccc1-2`, the “% Inhibition” value was -3% and the Z score was 0.47. In the case of `CC(C)Cc1ccc(CN[C@H]2CCC(=O)NC2)cc1`, the “% Inhibition” value is reported as -1% and the Z score is reported as 0.14. In the case of `CC(C)[C@H](CC(=O)O)NC(=O)Cc1ccncc1`, the “% Inhibition” value is reported as -3% and the Z score is reported as 0.41. In the case of `Cc1nc2c(S(=O)(=O)c3ccccc3)cnn2c(C)c1C`, the “% Inhibition” value is reported as 0% and the Z score is reported as -0.04. `Cc1cnc(-c2noc([C@@H]3CC=CCC3)n2)s1` was tested, and the “% Inhibition” value was -10% and the Z score was 1.41. In the case of `CCC(=O)N1CCN(Cc2cnn(-c3ccccc3)c2)[C@@H]2CS(=O)(=O)C[C@@H]21`, the “% Inhibition” value is reported as -13% and the Z score is reported as 1.67. `Cn1nccc1C1(O)CCN(C(=O)c2cccc(C3CC3)c2)CC1` was tested, and the “% Inhibition” value was -7% and the Z score was 1.01. For `O=C(O)c1cccc(-c2noc(C3CC3)n2)c1`, the “% Inhibition” value was 11% and the Z score was -1.45. With `COc1ccccc1-c1noc2ncnc(NCCN3CCCCC3)c12` the “% Inhibition” value was 2% and the Z score was -0.21. In the case of `CCC(=O)Nc1c(C)noc1/C=C\c1ccc(S(=O)(=O)NCc2cccc(OC)c2)cc1`, the “% Inhibition” value is reported as -21% and the Z score is reported as 2.89. In the case of `Cc1cc(CNC(=O)N2CC(C)OCC2C)cc(N2CCCC2)n1` (stereo not drawn), the “% Inhibition” value is reported as -7% and the Z score is reported as 1. In the case of `O=C(NCc1cc(C2CC2)on1)c1cccc(S(=O)(=O)NC2CCC2)c1`, the “% Inhibition” value is reported as -1% and the Z score is reported as 0.15. In the case of `O=C(NCCCn1ncccc1=O)c1ccc2ccccc2n1`, the “% Inhibition” value is reported as -21% and the Z score is reported as 3.96. With `CN(C(=O)Cc1cnccn1)C1CCCCCCC1` the “% Inhibition” value was 6% and the Z score was -0.98. With `FC(F)(F)CCC(CCC(F)(F)F)NCc1cc[nH]n1` the “% Inhibition” value was -8% and the Z score was 1.68. For `COc1ccc(Cl)cc1NC(=O)N1CC[C@H](Oc2ccncn2)C1`, the “% Inhibition” value was -11% and the Z score was 1.68. `Brc1cnn(-c2nc3cnccc3s2)c1` was tested, and the “% Inhibition” value was -8% and the Z score was 1.11. With `Cc1ccc(Cc2ccccc2C(=O)N[C@H]2C[C@H](c3cc(=O)[nH]cn3)C2)cc1` the “% Inhibition” value was -28% and the Z score was 3.59. `O=C(NCc1ccncc1)c1nnc(-c2ccccc2)o1` was tested, and the “% Inhibition” value was 11% and the Z score was -1.76. In the case of `CCc1ccc(CNS(=O)(=O)[C@H]2CCN(C(=O)OCc3ccccc3)C2)s1`, the “% Inhibition” value is reported as -28% and the Z score is reported as 3.25. In the case of `CC(C)n1cc(S(=O)(=O)N2CCC[C@H]2c2ncccn2)cn1`, the “% Inhibition” value is reported as -6% and the Z score is reported as 0.63. With `O=C(CC1CCCC1)NC1CCCCCC1` the “% Inhibition” value was -2% and the Z score was 0.29. `CC(C(=O)N1CCC(CNC(=O)OC(C)(C)C)(C(F)F)C1)C1CC1` (stereo not drawn) was tested, and the “% Inhibition” value was -6% and the Z score was 1.19. In the case of `C=C(C)COc1ccccc1NC(=O)c1ccnnc1`, the “% Inhibition” value is reported as -4% and the Z score is reported as 0.54. With `CCOC(=O)c1nn(CCc2ccccc2)c2c1CN(C(=O)[C@H]1CCOC1)CC2` the “% Inhibition” value was -11% and the Z score was 1.4. For `CNC(=O)[C@@H]1CCCCN1C(=O)CCCOCc1ccccc1`, the “% Inhibition” value was -6% and the Z score was 0.68. For `CC1NC(=O)C(C)N(S(=O)(=O)c2cnc3ccsc3c2)C1C` (stereo not drawn), the “% Inhibition” value was -2% and the Z score was 0.24. For `CNc1cc(C(=O)N[C@H]2COCC[C@@H]2OC)ccn1`, the “% Inhibition” value was -2% and the Z score was 0.24. `COc1cc(C(=O)N2CCCCC2)c(N(C)S(C)(=O)=O)cc1OC` was tested, and the “% Inhibition” value was 35% and the Z score was -3.91. For `Cc1nc2c(s1)[C@@H](NC(=O)Nc1ccnn1C1CC1)CCC2`, the “% Inhibition” value was -1% and the Z score was 0.19. With `CN1CCN(C(=O)[C@@H]2CCc3ccccc3N2)CC1` the “% Inhibition” value was 6% and the Z score was -0.98. In the case of `C[C@@H](C(=O)N1CCCc2ccccc21)N1CC(n2cccn2)C1`, the “% Inhibition” value is reported as 2% and the Z score is reported as -0.34. In the case of `CN1CC(C(=O)NC(c2ccccc2)c2cccs2)CC1=O` (stereo not drawn), the “% Inhibition” value is reported as -1% and the Z score is reported as 0.2.
